Each structure is given as a SMILES string. In all, about 150,000 compounds went through this assay and about 540 (0.36%) showed an effect of 50% or more. The list shows a part of the results.

This assay has as its system Plasmodium falciparum. Kind of assay: Primary screen in NF54 nanoGlo assay, in single point, at 2uM, 72h; a lower Z score goes with more inhibition. Format: functional, Erythrocyte. Particulars: timepoint 72 hour.
On to `Cc1nc(C)c(C(=O)ON2C(=O)CCC2=O)s1`, for which the “% Inhibition” value is reported as -6% and the Z score amounted to 1.02.
For `COCCN(Cc1nccs1)C(=O)[C@@H]1CCCN1S(C)(=O)=O`, the “% Inhibition” value is listed as -25% and the Z score is listed as 2.19.
For `CC(C)CCOc1ccc(C(=O)C(CCC(CN2CCOCC2)C(=O)c2ccc(OCCC(C)C)cc2)CN2CCOCC2)cc1` (centres undefined), in that order: -5% and 0.75.
Taken in the same sequence, the figures for `Cc1ccc(Oc2cc(C#N)c(C#N)cc2N2CCCCC2)cc1C` were -5% and 0.64.
`Cc1csc([C@@H](C#N)C(=O)c2cnc3ccccn23)n1`: the “% Inhibition” value is on record as 24% and the Z score is on record as -2.79.
On to `C=Cc1ccc(N(C)C[C@H]2CC(=O)N(C(C)(C)C)C2)nc1`, for which the “% Inhibition” value is on record as 0% and the Z score is on record as -0.03.
As for `CC(O)CC1CCCN1C(=O)CCN1c2ccccc2CCC1C` (centres undefined), the “% Inhibition” value is reported as 2% and the Z score was -0.21.
On to `O=c1[nH]ccc2ccc(-n3ccc(-c4cccnc4)n3)cc12`, for which the “% Inhibition” value is given as -8% and the Z score turned out to be 1.45.
On to `Cc1ccc(F)c2c1N(C(=O)C[C@H]1CCS(=O)(=O)C1)CCC2`, for which the “% Inhibition” value turned out to be 0% and the Z score was -0.09.
Taken in the same sequence, the figures for `CCc1ccc(CN(C)Cc2cccnc2)o1` were -2% and 0.25.
`Cc1noc(C)c1CC(=O)Nc1nc(C(=O)NCc2ccc3c(c2)OCO3)co1`: the “% Inhibition” value amounted to 6% and the Z score is recorded as -0.89.
Taken in the same sequence, the figures for `Cn1ncc2c(N3CCOCC3)nc(C(=O)NCc3ccccc3)nc21` were -7% and 0.68.
Taken in the same sequence, the figures for `CC[C@](C)(NCc1ccc(F)c(Cl)c1)C(N)=O` were -6% and 0.63.
Taken in the same sequence, the figures for `COc1ccccc1C(=O)NCC(=O)N[C@@H](C)C(c1ccccc1)c1ccccc1` were 1% and -0.19.
`c1ccc(N2CCOCC2)c(-c2nc(-c3ccsc3)no2)c1`: the “% Inhibition” value is -1% and the Z score is given as 0.06.
Taken in the same sequence, the figures for `Cc1ccc(CN2CC[C@H](CO)[C@H](N(C)C)C2)s1` were 3% and -0.39.
As for `COc1cc2nc(-c3ccc(C)o3)cc(C(=O)NCc3cc(C)cc(C)c3)c2cc1OC`, the “% Inhibition” value was -12% and the Z score amounted to 1.22.
`CC(C)(CNC(=O)c1c[nH]nc1C1CC1)c1cccs1`: the “% Inhibition” value was -2% and the Z score is 0.24.
For `O[C@@H](CNCc1cnc(N2CCOCC2)nc1)c1ccccc1`, in that order: -9% and 1.02.
For `COCc1nc2nccc(-c3cccc4ccccc34)n2n1`, in that order: -6% and 1.14.
For `O=C1c2ccccc2C(=O)C1(c1ccc(N2CCCCC2)cc1)C1(c2ccc(N3CCCCC3)cc2)C(=O)c2ccccc2C1=O`, the “% Inhibition” value is recorded as -20% and the Z score was determined as 1.83.
Taken in the same sequence, the figures for `CCN(C(=O)c1ccoc1)c1nc2cc(Cl)ccc2s1` were -8% and 0.7.
Taken in the same sequence, the figures for `O=c1c2c(ncn1Cc1ccccc1)c1ccccc1n2Cc1ccccc1` were -3% and 0.38.
In the case of `CCCCCN1CC(=O)N[C@@H]1c1cscn1`, the “% Inhibition” value is reported as -12% and the Z score is listed as 1.53.
Consider `COc1cccc(CC(C)NC(=O)NC2CCCn3nc(C)nc32)c1` (centres undefined), for which the “% Inhibition” value is recorded as -12% and the Z score is 1.21.
Taken in the same sequence, the figures for `C[C@@H](CNc1cncc(C(N)=O)n1)c1nc2ccccc2s1` were -11% and 2.17.
For the molecule `CC1CCC(C)N1C(C)c1nc(-c2cscn2)no1` (centres undefined), the “% Inhibition” value was -6% and the Z score was determined as 0.62.
As to `COc1ccc2oc(CN3CCC[C@H](CCO)C3)cc2c1`, the “% Inhibition” value was -5% and the Z score is reported as 0.65.
Consider `Cn1ccnc1[C@@H]1[C@@H](C(=O)Nc2ccnc(C(C)(C)C)n2)CCC(=O)N1C1CC1`, for which the “% Inhibition” value amounted to 4% and the Z score is -0.65.
For `OCCn1ncnc1-c1scc2c1OCCO2`, in that order: -21% and 2.27.
For `Cc1noc(C)c1N(C)CCn1cncn1`, in that order: -14% and 1.6.
For `O=C(c1cnccn1)N1CC[C@H](CCOc2ccccc2)C1`, in that order: -4% and 0.63.
With `O=C1NCC2(CN(C(=O)c3coc4ccccc34)C2)O1`, the “% Inhibition” value is recorded as 6% and the Z score is -0.69.
On to `CN(C)C[C@H]1CN(C(=O)c2ccc(F)c(Cl)c2)CC12CCCCC2`, for which the “% Inhibition” value is listed as 2% and the Z score is reported as -0.42.
As to `COCc1noc(CNC(=O)Nc2cccc(CN3CCCC[C@@H]3C)c2)n1`, the “% Inhibition” value was -8% and the Z score is on record as 1.49.
`Cc1nscc1-c1nc([C@H]2CCS(=O)(=O)C2)no1`: the “% Inhibition” value was determined as 6% and the Z score is -0.77.
Taken in the same sequence, the figures for `COc1c(C)cnc(CN2CCN(Cc3ccc(C)o3)[C@@H](CCO)C2)c1C` were -5% and 0.71.
Taken in the same sequence, the figures for `CC(C)(C)OC(=O)N[C@H](C(=O)O)c1ccccc1` were 4% and -0.5.
Taken in the same sequence, the figures for `O=S1(=O)C[C@H](NC2CC2)[C@@H](S(=O)(=O)c2ccccc2)C1` were -7% and 0.82.
For the molecule `Cc1oc(C(C)C)cc1C(=O)N1CCC2(CC1)CC(=O)N(Cc1ccccc1)C2`, the “% Inhibition” value was -6% and the Z score worked out at 0.96.
Consider `O=C(CCc1ccco1)Nc1nc(-c2cc(F)ccc2F)cs1`, for which the “% Inhibition” value is recorded as -18% and the Z score is reported as 1.52.
As for `CCNC(=O)N[C@H]1CCN(c2nc(O)cc(C(C)C)n2)C1`, the “% Inhibition” value is recorded as -11% and the Z score is reported as 1.19.

What is called % Inhibition is the drop in the measured response relative to a control, in per cent.

Source of the values: ChEMBL document CHEMBL4888484, “Replenishing the malaria drug discovery pipeline: Screening and hit evaluation of the MMV Hit Generation Library 1 (HGL1) against asexual blood stage Plasmodium falciparum ,using a nano luciferase reporter read-out” (2022).
